In all, about 81,000 sequences were measured (“one-hybrid fitness for binding NBS DNA”: median about -0.1, highest 2% from about 0.36 on). The list shows a part of the results.
B1: Caulobacter ParB omega fusion; a variant is named by its letters at X, in order, B8GW30 (parent)
chain: MESVVVGEPGMSEGRRGLGRGLSALLGEVDAAPAQAPGEQLGGSREAPIEILQRNPDQPRRTFREEDLEDLSNSIREKGVLQPILVRPSPDTAGEYQIVAGERAWRAAQRAGLKTVPIMVRELDDLAVLEIGIIENVQRADLNVLEEALSYKVLMEKFERTQENIAQTIGKSXSHVANXMRLLXLPDEVQSYLVSGELTAXHARAIAAAADPVALAKQIIEGGLSVRETEALARKAPNLSAGKSKGGRPPRVKDTDTQALESDLSSVLGLDVSIDHRGSTGTLTITYATLEQLDDLCNRLTRGI

Variants of: B1
Assay: one-hybrid fitness for binding NBS DNA (the Noc-binding site; scaled: cognate 1, non-cognate 0); higher = stronger binding
Conditions: with NBS DNA site
Summary of the method: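 On M9-minus-histidine containing 0.1 mM IPTG and 5 mM 3-AT, E. coli USO cells with a HIS3 reporter, site 19 bp from the promoter, grew 48 hours at 37°C to select Caulobacter ParB libraries randomised at four specificity codons. Plasmids from before and after were Illumina-sequenced, with three replicate libraries pooled and variants under 10 reads left out. Fitness is the log change in variant-to-wild-type read ratio, rescaled against cognate and non-cognate.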

Variant	one-hybrid fitness for binding NBS DNA
YVGR	≤ 0.2
PYLF	≤ 0.2
SYSY	≤ 0.2
HTVQ	≤ 0.2
NHTY	≤ 0.2
AISA	≤ 0.2
AGEK	≤ 0.2
IELV	≤ 0.2
SMVM	≤ 0.2
NFFR	≤ 0.2
QRQY	0.521
SQES	≤ 0.2
RVTK	≤ 0.2
PANW	≤ 0.2
YPCE	≤ 0.2
DAHF	≤ 0.2
AENW	≤ 0.2
PADV	≤ 0.2
TFQW	≤ 0.2
VPTM	≤ 0.2
LSCN	≤ 0.2
AMAR	≤ 0.2
PSWN	≤ 0.2
CRNF	≤ 0.2
SRKI	≤ 0.2
GKST	≤ 0.2

Variant	one-hybrid fitness for binding NBS DNA
KTID	≤ 0.2
CMRS	≤ 0.2
TEAV	≤ 0.2
YSPR	≤ 0.2
GWAS	≤ 0.2
WKNA	≤ 0.2
LTKM	≤ 0.2
PERN	≤ 0.2
TMAL	≤ 0.2
TSCW	≤ 0.2
PIPQ	≤ 0.2
VAGC	≤ 0.2
GWSR	≤ 0.2
GIGG	≤ 0.2
LVTM	≤ 0.2
CLSQ	≤ 0.2
MMTL	≤ 0.2
QIIM	≤ 0.2
WHRF	≤ 0.2
IPLM	≤ 0.2
PANF	≤ 0.2
FASM	≤ 0.2
WPLY	≤ 0.2
LPWC	≤ 0.2
TGKD	≤ 0.2
LCSF	≤ 0.2

Variant	one-hybrid fitness for binding NBS DNA
VDNS	≤ 0.2
CVLL	≤ 0.2
DTYC	≤ 0.2
TYKF	≤ 0.2
VKIV	≤ 0.2
LTMV	≤ 0.2
LLKC	≤ 0.2
IGTR	≤ 0.2
NNFM	≤ 0.2
RQNG	≤ 0.2
EQDC	≤ 0.2
CKIP	≤ 0.2
DRKN	≤ 0.2
TIRM	≤ 0.2
NYNL	≤ 0.2
HHGT	≤ 0.2
TCRA	≤ 0.2
SCLE	≤ 0.2
STFV	≤ 0.2
LSHR	≤ 0.2
TIFT	≤ 0.2
CGSG	≤ 0.2
RETS	≤ 0.2
RGNV	≤ 0.2
KNNF	≤ 0.2
YQFY	≤ 0.2

Variant	one-hybrid fitness for binding NBS DNA
YPQR	≤ 0.2
KCKC	≤ 0.2
YSQC	≤ 0.2
RWHG	≤ 0.2
FGFR	≤ 0.2
RYQE	≤ 0.2
LPSQ	≤ 0.2
RIPC	≤ 0.2
QQLP	≤ 0.2
IALW	≤ 0.2
RAGT	0.443
KTWY	≤ 0.2
NKCG	≤ 0.2
RTHK	≤ 0.2
SCAW	≤ 0.2
QYAG	≤ 0.2
RGML	≤ 0.2
DNST	≤ 0.2
GLRY	≤ 0.2
ISED	≤ 0.2
EGDR	≤ 0.2
AMEM	≤ 0.2
VSTH	≤ 0.2
GING	≤ 0.2
TGVL	≤ 0.2
YQHS	≤ 0.2

Variant	one-hybrid fitness for binding NBS DNA
QNGT	≤ 0.2
NPQG	≤ 0.2
DAKT	≤ 0.2
FRFK	≤ 0.2
ETHP	≤ 0.2
ANRF	≤ 0.2
WHVS	≤ 0.2
LYQH	≤ 0.2
PEIS	≤ 0.2
APYE	≤ 0.2
TIMM	≤ 0.2
GVSG	≤ 0.2
QPLD	≤ 0.2
NCST	≤ 0.2
TNAF	≤ 0.2
YTMC	≤ 0.2
LFTC	≤ 0.2
LYAR	≤ 0.2
SHFR	≤ 0.2
MYPE	≤ 0.2
MWRS	≤ 0.2
RQSV	≤ 0.2
PGTI	≤ 0.2
CYVT	≤ 0.2
CHAS	≤ 0.2
QYWM	≤ 0.2

Variant	one-hybrid fitness for binding NBS DNA
QEAT	≤ 0.2
EICS	≤ 0.2
EHEV	≤ 0.2
RFGA	≤ 0.2
ETGG	≤ 0.2
DLEM	≤ 0.2
DCCT	≤ 0.2
VSHR	≤ 0.2
VNWR	≤ 0.2
PNTS	≤ 0.2
RMMQ	≤ 0.2
DSAL	≤ 0.2
DIKG	≤ 0.2
CLRG	≤ 0.2
DLPV	≤ 0.2
HIAW	≤ 0.2
LAKS	≤ 0.2
YAAV	≤ 0.2
PTTS	≤ 0.2
RGLS	≤ 0.2
LPTW	≤ 0.2
PLAI	≤ 0.2
PLIH	≤ 0.2

From a collection of fitness landscapes (doi:10.1016/j.celrep.2020.107928)
